Hit rate of the full screen: of about 48,000 compounds, about 1,200 (2.5%) were called active. Not shown: some 2% with an inconclusive outcome.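 Rule for the calls: active = activation of at least 60% and not above a set upper limit (about 1 call in 100 departs from these limits); inconclusive = activation of 40% to 60%, or above that upper limit; inactive = activation under 40%.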 Some of the results follow.
biological target: Probable G-protein coupled receptor 32 (Homo sapiens) (UniProt O75388); assay: qHTS for Agonists of Human Resolvin D1 Receptor DRV1; conditions: CHO-K1 GPR32 beta-arrestin PathHunter luminescence, 90 min; at 76.9 µM; active compounds read high; zero percent set by DMSO-only wells; note: 0% is about no effect
UniProt O75388, sequence (O75388 whole entry, looked up): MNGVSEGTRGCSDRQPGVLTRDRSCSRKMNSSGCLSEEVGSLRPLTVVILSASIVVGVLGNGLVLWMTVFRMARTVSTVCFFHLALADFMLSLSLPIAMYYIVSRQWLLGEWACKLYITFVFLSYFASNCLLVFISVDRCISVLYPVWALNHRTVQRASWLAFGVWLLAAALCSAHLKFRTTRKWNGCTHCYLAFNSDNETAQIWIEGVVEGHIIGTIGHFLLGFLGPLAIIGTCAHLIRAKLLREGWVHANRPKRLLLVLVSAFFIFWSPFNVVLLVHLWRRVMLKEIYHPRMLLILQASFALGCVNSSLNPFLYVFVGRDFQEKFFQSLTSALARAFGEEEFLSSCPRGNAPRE
Outline: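 Readings come from a cell-based beta-arrestin complementation format: CHO-K1 GPR32 stable cells (2,500/well) treated 90 min with compounds, then beta-Gal substrate added for 1 h before chemiluminescence imaging.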

activation, inactive:
COCCNC(=O)c1nn(-c2ccc(Cl)cc2)nc1CO -0.679%
COc1ccc(CNC(=O)c2cc3c(=O)n(C)c4ccccc4c3n2C)cc1 4.29%
Cn1cnc(S(=O)(=O)N2CCC(C(=O)NCc3ccc(Cl)cc3)CC2)c1 -10.3%
O=C(O)[C@@H]1C[C@H](C(=O)O)N1 2.31%
O=C(Cc1ccccc1)N(Cc1cccnc1)c1nc2ccc(F)cc2s1 -24.9%
O=C(CSc1ccccc1)NCc1ccc2c(c1)CCN2C(=O)c1ccc(F)cc1 -8.21%
CCc1ccc2oc(-c3ccc(NC(=O)c4cc(OC)c(OC)c(OC)c4)cc3)nc2c1 23.9%
CCOC(=O)c1ccc(N2C(=O)c3[nH]nc(-c4ccc(OCC)cc4)c3C2c2ccc(OC)cc2OC)cc1 (stereo not drawn) -8.81%
O=C(Nc1cccc2cccnc12)c1ccc(F)cc1 -23.2%
CCOc1cc(C2CC(=O)Nc3nc(SCc4ccccc4)[nH]c(=O)c32)ccc1O (stereo not drawn) -1.09%
CCc1ccc(CNC(=O)CCCN2C(=O)c3cccnc3Oc3ccc(Cl)cc32)cc1 -16.9%
Cc1ccccc1-c1nnc(C2CCN(S(=O)(=O)c3ccc(Cl)cc3)CC2)o1 -5.7%
O=C(COc1ccccc1)Nc1nnc(S(=O)(=O)N2CCCCCC2)s1 9.31%
Cc1nn(CC(=O)NCCc2ccccc2Cl)c(=O)c2nn(-c3ccccc3)c(C)c12 -21.2%
O=S(=O)(c1ccccc1)N1CCC(c2ccncc2)CC1 7.71%
O=C1COc2cc(S(=O)(=O)CCC(=O)N3CCN(c4cccc(Cl)c4)CC3)c(Cl)cc2N1 27.2%
CCC(C)NC(=O)c1sc2nc(C)c(C(=O)Nc3ccc(C)cc3C)c(-c3ccc(Cl)cc3)c2c1N (stereo not drawn) -20.6%
CCOc1ccc(CNC(=O)Cn2nc(C)c3nn(-c4ccc(Cl)cc4)c(C)c3c2=O)cc1OC -7.96%
Cc1ccc2c(c1)c1c(c(=O)n(-c3ccccc3C)c(=O)n1CC(=O)NCCC1=CCCCC1)n2C -22.8%
CC(=O)c1cc(-c2ccc(F)cc2)n(CCC(=O)Nc2nc3c(C)cccc3s2)c1C -14.6%
c1ccc2c(CC3=NCCN3)cccc2c1 -18.3%
COc1ccc(CNCc2c(C(=O)O)c(C)n(Cc3ccc(Cl)cc3)c2C)c(OC)c1 -12.4%
CC(=O)OCC(=O)[C@@]12OC(C)(C)O[C@@H]1C[C@H]1[C@@H]3C[C@H](F)C4=CC(=O)C=C[C@]4(C)[C@@]3(F)[C@@H](O)C[C@@]12C 5.44%
Cc1ccc(Cc2nc3ccccc3nc2SCC(=O)Nc2cccc(C(F)(F)F)c2)cc1 -2.6%
Cc1ccc(-c2cc(C(=O)Nc3c(C(=O)c4ccccc4)oc4ccccc34)no2)cc1F 14.3%
Cc1ccc(-n2ncc3c(NC4CCCCC4)ncnc32)cc1 21.9%
O=C(CN1CCSc2ccccc21)N1CCN(c2cccc(Cl)c2)CC1 -7.47%
COC(=O)c1cnn(-c2ccc(C(=O)Nc3ccc(C(C)=O)cc3)cc2)c1N 6.01%
Cc1ccc(CNS(=O)(=O)c2c(C)nc3scc(C)n3c2=O)cc1 -11.1%
CC(C)(C)c1ccc(S(=O)(=O)NCc2nc3cccnc3n2Cc2ccccc2Cl)cc1 -38.4%
COc1ccc(-n2c(=O)c3sc4ccccc4c3n(CC(=O)Nc3cccc(C)c3)c2=O)cc1 -12.1%
Cc1ccc(-c2nnc(Nc3ccc(Br)cc3)c3ccccc23)cc1S(=O)(=O)N1CCOCC1 -12.3%
COCCNC(=O)Cn1cc(S(=O)(=O)Cc2ccccc2Cl)c2ccccc21 -6.38%
CCOC(=O)N1CCc2c(sc3c2c(=O)n(CCc2ccccc2)c(=O)n3Cc2cc(C)ccc2C)C1 -3.04%
CC1=C(C(=O)Nc2ccccc2C)C(c2cccnc2)n2nc(SCc3ccccc3)nc2N1 (stereo not drawn) -12.5%
COc1ccccc1NC(=O)c1cc(S(=O)(=O)N(C)C2CCCCC2)ccc1F -11.6%
COc1cc(C=C2CCC/C(=C\c3ccc(O)c(OC)c3)C2=O)ccc1O -44.1%
Cc1ccc(NC(=O)C(Cc2ccccc2)NS(=O)(=O)c2ccc3c(c2)oc(=O)n3C)c(Cl)c1 (stereo not drawn) 0.48%
COc1ccccc1NC(=O)C1=C(C)Nc2nc(SCc3ccccc3)nn2C1c1ccccn1 (stereo not drawn) -4.54%
CCOc1ccccc1NC(=O)c1cn(C2CCCC2)c(=O)c2c1c1ccccc1n2C -14.6%
CCN(CC)S(=O)(=O)c1ccc2c(c1)N(CC(=O)NCCc1ccc(OC)c(OC)c1)C(=O)CO2 -17.3%
O=C(CCC(=O)N1CC2CCCN2c2ccccc21)NCc1ccccc1Cl (stereo not drawn) -31.4%
COc1ccc(-c2cc(=O)n3[nH]cnc3n2)cc1 -1.66%
COc1ccc(C(=O)Nc2ccccc2C(=O)OCc2cc(=O)n3c4c(sc3n2)CCCC4)cc1 -13.2%
COc1cc(OC)c(Nc2nc3ccc(C)cc3n3nnnc23)cc1Cl -9.57%
Cc1nnc(NC(=O)CSc2nccn2-c2cccc(Cl)c2)s1 -16.6%
CC1CCCN(S(=O)(=O)c2cc3c(cc2Cl)NC(=O)CO3)C1 (stereo not drawn) -7.8%
Cc1nc2c(c(C)c1CCC(=O)Nc1cccc(C(F)(F)F)c1)c(=O)n(C)c(=O)n2C -9.16%
COC(=O)c1c(NC(=O)c2cccc(OC)c2)sc2c1CCC(C(C)(C)C)C2 (stereo not drawn) -1.37%
COc1ccccc1CNc1nc2nc(C)c(Cl)c(C)n2n1 3.69%
COCCCNC(=O)c1ccc2c(c1)N=C(C)c1c(C)ccc(C)c1S2 17.9%
Cc1cccc(-c2nc(SCC(=O)Nc3cc(C)on3)c3c(=O)n(C)c(=O)n(C)c3n2)c1 -22.9%
COc1ccc(N2CCN(c3ccc(-c4nc(-c5ccccc5C)no4)cc3[N+](=O)[O-])CC2)cc1 9.48%

From PubChem BioAssay AID1346428 (National Center for Advancing Translational Sciences (NCATS), 2018)
